This is an account of results in the supplement of paper PMC4604168 (melanoma cell lines).

The other results are listed elsewhere or left out. Repeats are few or missing, and single values can be far off.
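Further: cell number obtained by counting DAPI-stained nuclei in high-throughput microscope images with image analysis software, screen run in 1,536-well plates.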

This assay concerns WM3619. The assay can be described thus: cell count relative to DMSO control; melanoma cells; higher = more viable cells. The settings on record: library dose: low library concentration; 72 h.
The compound `CCc1ccc(CCOc2ccc(CC3SC(=O)NC3=O)cc2)nc1` (centres undefined) [pioglitazone] + CCCCCCCCCCCC1=C(O)C(=O)C=C(O)C1=O [Embelin] (first compound 2 µM, partner dose 1.2 µM) displayed a cell count of 115%. In turn, `COc1cc2c(Oc3ccc4[nH]c(C)cc4c3F)ncnc2cc1OCCCN1CCCC1` [cediranib] + CCCCCCCCCCCC1=C(O)C(=O)C=C(O)C1=O [Embelin] (first compound 0.4 µM, partner dose 1.2 µM) registered a cell count of 107%.

Take `CC(C)(C)c1cnc(CSc2cnc(NC(=O)C3CCNCC3)s2)o1` + Cc1cc([N+](=O)[O-])ccc1NS(=O)(=O)c1cc(Cl)ccc1Cl [FH535] (first compound 0.01 µM, partner dose 1 µM): the cell count was 98.5%. As to `CC(C)(C)c1cnc(CSc2cnc(NC(=O)C3CCNCC3)s2)o1` + N#Cc1c(O)c2c(-c3ccc(-c4ccccc4O)cc3)csc2[nH]c1=O [A769662] (first compound 0.01 µM, partner dose 2 µM), the cell count came out at 114%.
